Inconclusive means that the source gave no clear call. Such entries were picked first, then a sample of the others. No potency is given beside an inconclusive call; the fits are too rough. Calls of active or inactive are those of the source. Calls come from the whole dose curve; as a rule, active = well fitted inhibition curve with a large enough effect in the repeat runs; inconclusive = weak or mixed curves; inactive = no such curve, though single readings can be large or run the other way.
molecular target: Cytochrome P450 3A4 (Homo sapiens) (UniProt P08684); test: Cytochrome P450 Family 3 Subfamily A Member 4 (CYP3A4) small molecule antagonists: luciferase reporter qHTS assay (AID 1671201); conditions: P450-Glo CYP3A4 enzyme, luciferin luminescence, 1 h; series mostly up to 115 µM; note: nearly all actives have a fitted effect of over 50% in size
Chain of UniProt P08684 (P08684 whole entry, looked up): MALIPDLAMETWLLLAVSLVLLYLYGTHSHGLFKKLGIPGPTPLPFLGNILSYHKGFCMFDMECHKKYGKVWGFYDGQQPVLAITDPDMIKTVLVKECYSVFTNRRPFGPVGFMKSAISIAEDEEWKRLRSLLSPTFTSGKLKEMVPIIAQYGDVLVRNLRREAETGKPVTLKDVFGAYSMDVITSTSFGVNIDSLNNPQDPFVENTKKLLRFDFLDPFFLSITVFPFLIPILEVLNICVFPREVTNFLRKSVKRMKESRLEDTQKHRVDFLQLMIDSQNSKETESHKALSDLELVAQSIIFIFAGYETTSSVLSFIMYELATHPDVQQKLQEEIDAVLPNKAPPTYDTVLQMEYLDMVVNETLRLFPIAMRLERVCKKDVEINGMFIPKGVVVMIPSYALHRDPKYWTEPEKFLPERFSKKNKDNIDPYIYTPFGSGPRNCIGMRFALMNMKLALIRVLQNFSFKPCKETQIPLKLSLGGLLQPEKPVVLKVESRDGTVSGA
Method in brief: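 Recombinant human CYP3A4 converts a proluciferin substrate to luciferin over 1 h at room temperature after NADPH regeneration solution is added (compound preincubated 10 min); detection reagent stops reaction, luminescence read 20 min later as relative units.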
Potency is the fitted concentration of half-maximal effect; tags give direction and shape of the fitted curve.

Row | SMILES | Potency
1 | CCc1ccc(O)c(C(C)(C)C)c1 | inactive
2 | CCCCN(CCCC)CC(O)c1cc(Cl)cc2c1-c1ccc(Cl)cc1/C2=C/c1ccc(Cl)cc1 (stereo unspecified) | inconclusive [inhibitor, partial curve]
3 | C[C@@H]1CC[C@H]2C(C)(C)[C@H]3C[C@@]12CC[C@@]3(C)O | inconclusive [inhibitor, partial curve]
4 | O=C(Cl)c1cc(C(=O)Cl)cc(C(=O)Cl)c1 | inconclusive [inhibitor, full curve]
5 | CC(C)C(O)C(C)(C)CO (stereo unspecified) | inconclusive [inhibitor, partial curve, poor fit]
6 | CC(=O)CC(=O)Nc1ccccc1C | inconclusive [inhibitor, partial curve, poor fit]

Source: PubChem BioAssay (Tox21)
